# Measured values reported in the supplement of paper PMC8728848.
# This is one part of the list.
# Legend:
# Experiment in all cases: glycan array binding signal (z-score within array); higher = stronger binding
# Conditions in all cases: glycan notation: IUPAC condensed, linker removed; mutation: Y228W
# [1] = molecular target: Neu5Ac(a2-3)Gal(b1-4)GlcNAc(b1-3)[Neu5Ac(a2-3)Gal(b1-4)GlcNAc(b1-6)]GalNAc
# How it was run: (§1)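 The Consortium for Functional Glycomics database supplied 3228 glycan arrays, of which those lacking an available protein sequence were dropped. The binding signal, a within-array Z-score, was averaged across arrays of the same protein sequence and across linkers. Negative scores can be read as non-binding.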
# [2] = molecular target: Neu5Ac(a2-3)Gal(b1-4)GlcNAc(b1-6)GalNAc
# How it was run: as §1
# [3] = molecular target: Neu5Ac(a2-3)Gal(b1-4)GlcNAc(b1-6)[Gal(b1-3)]GalNAc
# How it was run: as §1
# [4] = molecular target: Neu5Ac(a2-3)Gal(b1-4)GlcNAc(b1-6)[Neu5Ac(a2-3)Gal(b1-3)]GalNAc
# How it was run: as §1
# [5] = molecular target: Neu5Ac(a2-3)Gal(b1-4)GlcNAc6S
# How it was run: as §1
# [6] = molecular target: Neu5Ac(a2-3)Gal(b1-4)[Fuc(a1-3)]GlcNAc
# How it was run: as §1
# [7] = molecular target: Neu5Ac(a2-3)Gal(b1-4)[Fuc(a1-3)]GlcNAc(b1-2)Man
# How it was run: as §1
# [8] = molecular target: Neu5Ac(a2-3)Gal(b1-4)[Fuc(a1-3)]GlcNAc(b1-3)Gal
# How it was run: as §1
# [9] = molecular target: Neu5Ac(a2-3)Gal(b1-4)[Fuc(a1-3)]GlcNAc(b1-3)Gal(b1-4)GlcNAc
# How it was run: as §1
# [10] = molecular target: Neu5Ac(a2-3)Gal(b1-4)[Fuc(a1-3)]GlcNAc(b1-3)Gal(b1-4)[Fuc(a1-3)]GlcNAc(b1-3)Gal(b1-4)[Fuc(a1-3)]GlcNAc
# How it was run: as §1
# [11] = molecular target: Neu5Ac(a2-3)Gal(b1-4)[Fuc(a1-3)]GlcNAc(b1-3)GalNAc
# How it was run: as §1
# [12] = molecular target: Neu5Ac(a2-3)Gal(b1-4)[Fuc(a1-3)]GlcNAc(b1-6)[Gal(b1-3)]GalNAc
# How it was run: as §1
# [13] = molecular target: Neu5Ac(a2-3)Gal(b1-4)[Fuc(a1-3)]GlcNAc(b1-6)[Neu5Ac(a2-3)Gal(b1-3)]GalNAc
# How it was run: as §1
# [14] = molecular target: Neu5Ac(a2-3)Gal(b1-4)[Fuc(a1-3)]GlcNAc6S
# How it was run: as §1
# [15] = molecular target: Neu5Ac(a2-3)Gal6S(b1-4)GlcNAc
# How it was run: as §1
# [16] = molecular target: Neu5Ac(a2-3)Gal6S(b1-4)[Fuc(a1-3)]GlcNAc
# How it was run: as §1
# Neu5Ac(a2-3)GalNAc = molecular target: Neu5Ac(a2-3)GalNAc
# How it was run: as §1
# [17] = molecular target: Neu5Ac(a2-3)GalNAc(b1-4)GlcNAc
# How it was run: as §1
# [18] = molecular target: Neu5Ac(a2-3)[GalNAc(b1-4)]Gal(b1-4)Glc
# How it was run: as §1
# [19] = molecular target: Neu5Ac(a2-3)[GalNAc(b1-4)]Gal(b1-4)GlcNAc
# How it was run: as §1
# [20] = molecular target: Neu5Ac(a2-3)[GalNAc(b1-4)]Gal(b1-4)GlcNAc(b1-3)GalNAc
# How it was run: as §1
# [21] = molecular target: Neu5Ac(a2-3)[Neu5Ac(a2-6)]GalNAc
# How it was run: as §1
# Neu5Ac(a2-6)Gal = molecular target: Neu5Ac(a2-6)Gal
# How it was run: as §1
# [22] = molecular target: Neu5Ac(a2-6)Gal(b1-3)GlcNAc(b1-3)[Gal(b1-4)GlcNAc(b1-6)]Gal(b1-4)Glc
# How it was run: as §1
# Neu5Ac(a2-6)Gal(b1-4)Glc = molecular target: Neu5Ac(a2-6)Gal(b1-4)Glc
# How it was run: as §1
# [23] = molecular target: Neu5Ac(a2-6)Gal(b1-4)GlcNAc
# How it was run: as §1
# [24] = molecular target: Neu5Ac(a2-6)Gal(b1-4)GlcNAc(b1-2)Man
# How it was run: as §1
# [25] = molecular target: Neu5Ac(a2-6)Gal(b1-4)GlcNAc(b1-2)Man(a1-3)Man(b1-4)GlcNAc(b1-4)GlcNAc
# How it was run: as §1
# [26] = molecular target: Neu5Ac(a2-6)Gal(b1-4)GlcNAc(b1-2)Man(a1-3)[Gal(b1-4)GlcNAc(b1-2)Man(a1-6)]Man(b1-4)GlcNAc(b1-4)GlcNAc
# How it was run: as §1
# [27] = molecular target: Neu5Ac(a2-6)Gal(b1-4)GlcNAc(b1-2)Man(a1-3)[GlcNAc(b1-2)Man(a1-6)]Man(b1-4)GlcNAc(b1-4)GlcNAc
# How it was run: as §1
# [28] = molecular target: Neu5Ac(a2-6)Gal(b1-4)GlcNAc(b1-2)Man(a1-3)[GlcNAc(b1-4)][Neu5Ac(a2-6)Gal(b1-4)GlcNAc(b1-2)Man(a1-6)]Man(b1-4)GlcNAc(b1-4)GlcNAc
# How it was run: as §1
binder,measurement,setting,value
"Epa1-NP-mutant-Y228W (Candida glabrata), Q6VBJ0 (protein) MILNPALFLNKCVCIYTTLILLLLTNGGYATSSNDISLASKDPTTFPLGCSPDITTPKKGLSMELYSYDFRKKGSYPCWDAAYLDPNYPRTGYKSHRLLAKVDGVTGNINFYYHATKGCTPQLGHLPASYNYPKPLTMTNFTMLLYGYFRPKVTGFHTFTISADDLLFVNFGAGNAFDCCRRDSSADHFGNYQAYAIWGSKTAKDELTVHLDAGVYYPIRLFYNNREWDGALSFTFKTESNENTVSDFSEYFFSLDDTEEGCPGLISYDSSCASVKTSKIIGIDYHTETPNENLVPITKTIYHLGIPCTGTTTTPLCGSGFYDPLANKCVTINTSSTSSVTKTTSHTTSKEVSFHSSISSQKTLIPKSIPSPYGPIKSQSIPTEMETSSEISSSEYAFSDVISTPSHSPYTKKHSSLNSSSYTSTVIHSLTSYSISQGIFSTSLSEQNITSKSSTDKFSTATSMSNNITQSSIIISQFSTNNENYTTTSMHTSSDKISTETLNNSISTTTSILFSNSSTILKNNTTIISSDKDTHYHPVNPTIVCSTNKTEIICASITQPSISNSNNHWSSSVLKFNSTTVRSTLPSSAGSNETSINVPFSSSTESNTSTSSTSTSNSKMVRSTLPSSAGSNETSISVPFSSSTESNTSTSSTSTSNSKMVRSTLPSSAGSNETSINVPFSSSTESNTSTSSTSTSNSKTVRSTPFSSAGIIMTSLSQRNNKSASSYASSNSKCYNTADSCRKVHSTPSYLLTSSYTSEGVDYDCSLVSTKLKINDTNCVNNKHTTKSCLKTSVTTTIPTLEIKTARKSSSNTIGLHSYPTSSPNKSISSAPIIGYISSFKTIKTASPSYQTSDLTTITTITSLNNPGSTAVENTHESNDKSRKTSSNDISSKHSVIKETKDAVESSNKSHQTNTLKCSSIIIASSSHNSYESLGGTTLTLTLSKVYSPQNNDTLPFLEISEVNPSRTVLPESSKMMQYLTSTEERNKTARNTIATNIVSISTFHFEGEGNAIRMGYTQLLLMLIGIIVMNIGT",glycan array binding signal (z-score),[1],-0.316
same,glycan array binding signal (z-score),[2],-0.066
same,glycan array binding signal (z-score),[3],0.589
same,glycan array binding signal (z-score),[4],-0.277
same,glycan array binding signal (z-score),[5],-0.107
same,glycan array binding signal (z-score),[6],-0.259
same,glycan array binding signal (z-score),[7],-0.422
same,glycan array binding signal (z-score),[8],-0.343
same,glycan array binding signal (z-score),[9],-0.028
same,glycan array binding signal (z-score),[10],-0.222
same,glycan array binding signal (z-score),[11],0.359
same,glycan array binding signal (z-score),[12],0.153
same,glycan array binding signal (z-score),[13],0.067
same,glycan array binding signal (z-score),[14],-0.314
same,glycan array binding signal (z-score),[15],-0.251
same,glycan array binding signal (z-score),[16],-0.378
same,glycan array binding signal (z-score),Neu5Ac(a2-3)GalNAc,-0.044
same,glycan array binding signal (z-score),[17],-0.172
same,glycan array binding signal (z-score),[18],-0.236
same,glycan array binding signal (z-score),[19],-0.228
same,glycan array binding signal (z-score),[20],-0.218
same,glycan array binding signal (z-score),[21],-0.195
same,glycan array binding signal (z-score),Neu5Ac(a2-6)Gal,-0.203
same,glycan array binding signal (z-score),[22],-0.113
same,glycan array binding signal (z-score),Neu5Ac(a2-6)Gal(b1-4)Glc,-0.162
same,glycan array binding signal (z-score),[23],-0.054
same,glycan array binding signal (z-score),[24],0.041
same,glycan array binding signal (z-score),[25],-0.018
same,glycan array binding signal (z-score),[26],-0.285
same,glycan array binding signal (z-score),[27],-0.017
same,glycan array binding signal (z-score),[28],-0.08
